# Results published in PubChem BioAssay AID588591 (National Center for Advancing Translational Sciences (NCATS), 2011).
# Out of some 390,000 compounds screened, about 4,700 (1.2%) were called active. The shares of active, inactive and inconclusive entries below differ from those in the screen. Calls follow the shape of the dose curve; as a rule, active = well fitted inhibition curve with a large enough effect; inconclusive = small, poorly fitted or top-dose-only effect, or another doubt; inactive = no such curve, though single readings can be large or run the other way. Where the call is inconclusive, the potency comes from a doubtful curve fit.
# Molecular target: DNA polymerase eta (Homo sapiens) (UniProt Q9Y253)
# Assay: qHTS for Inhibitors of Polymerase Eta
# Conditions: recombinant Pol eta, fluorescent DNA replication assay; series mostly up to 114 µM; activity change, negative = inhibition: at the top concentration
# How it was run: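 Fluorescent replication assay: 50 nM final substrate added after a 15 min room-temperature compound preincubation with 10 nM enzyme. Signal taken at 0 min and again at 10 min.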
# % is scaled to controls: 0 for no effect and ±100 for the full control effect; potency is read from the fitted curve at half-maximal effect; tags tell the direction and shape of the fitted curve.
# Sequence of UniProt Q9Y253 (Q9Y253 whole entry, looked up): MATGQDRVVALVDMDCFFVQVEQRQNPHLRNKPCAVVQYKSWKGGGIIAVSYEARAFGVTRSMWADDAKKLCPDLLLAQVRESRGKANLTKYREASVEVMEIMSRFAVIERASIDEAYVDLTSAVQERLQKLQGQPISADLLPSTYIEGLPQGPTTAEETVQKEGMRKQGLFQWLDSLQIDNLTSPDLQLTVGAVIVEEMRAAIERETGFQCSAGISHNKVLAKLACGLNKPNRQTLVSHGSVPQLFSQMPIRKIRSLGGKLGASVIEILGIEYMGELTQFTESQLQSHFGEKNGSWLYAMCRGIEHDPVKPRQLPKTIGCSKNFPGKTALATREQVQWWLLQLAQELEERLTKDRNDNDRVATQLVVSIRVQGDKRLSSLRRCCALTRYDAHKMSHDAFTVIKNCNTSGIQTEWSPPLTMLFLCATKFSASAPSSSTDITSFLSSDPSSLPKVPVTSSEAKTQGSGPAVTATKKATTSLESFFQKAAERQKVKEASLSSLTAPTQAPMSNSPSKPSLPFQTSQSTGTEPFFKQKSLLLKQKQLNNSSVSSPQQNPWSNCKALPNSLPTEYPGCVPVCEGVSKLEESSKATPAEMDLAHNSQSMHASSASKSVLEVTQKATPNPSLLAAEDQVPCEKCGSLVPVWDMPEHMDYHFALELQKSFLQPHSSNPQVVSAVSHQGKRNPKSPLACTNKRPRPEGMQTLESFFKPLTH
SMILES,"activity change, negative = inhibition",Potency
COc1ccc(NC(=O)c2ccc(NC(=O)CCS(=O)(=O)c3cccs3)cc2)cc1Cl,inactive: -15.8%,
Cc1ccc(-n2nnnc2SCC(=O)NCCc2ccccc2)cc1C,,"inconclusive: 79.4 µM [inhibitor, partial curve, poor fit]"
CCOc1ccccc1NC(=O)Cn1c(=O)n(-c2ccc(C)cc2)c(=O)c2c1cnn2C,inactive: 4.73%,
COc1ccc(OCC(=O)NCc2ccc3c(c2)CCN3C(=O)c2cccc(C)c2)cc1,inactive: -20.3%,
O=C(c1ccccc1)N(c1ccccc1)c1ccccc1O,,"inconclusive: 15.8 µM [inhibitor, partial curve, poor fit]"
CN(CC(=O)Nc1cccc(F)c1)C(=O)c1cc2c(s1)CCCCC2,inactive: -10.9%,
Oc1ccc(C(c2nnnn2C2CCCC2)N2CCc3ccccc3C2)cc1 (configuration not stated),,"inconclusive: 39.8 µM [inhibitor, partial curve, poor fit]"
O=C(NCc1cccnc1)/C(=C/c1ccccc1)NC(=O)c1ccccc1,,"inconclusive: 89.1 µM [inhibitor, partial curve, poor fit]"
O=C(NCC(c1ccc2c(c1)OCO2)N1CCN(c2ccccc2)CC1)c1ccc(F)c(F)c1 (configuration not stated),,"inconclusive: 79.4 µM [inhibitor, partial curve, poor fit]"
COc1ccc(-c2csc(Nc3ccc(S(=O)(=O)Nc4cc(C)on4)cc3)n2)cc1C,,active: 89.1 µM
Cc1cccc(NC(=O)CN2C(=O)N/C(=C\c3cccn3-c3cccc(C(=O)O)c3)C2=O)c1,,"inconclusive: 56.2 µM [inhibitor, partial curve, poor fit]"
Cc1c(C#N)c(O)n(C)c(=O)c1N=Nc1ccc(S(N)(=O)=O)cc1,inactive: 5.57%,
O=C(O)c1cccc(S(=O)(=O)Nc2cccc(S(=O)(=O)N3CCCCCC3)c2)c1,inactive: 2.49%,
CCc1ccc(OCCNC(=O)c2ccccc2SCc2ccccc2)cc1,,"inconclusive: 79.4 µM [inhibitor, partial curve, poor fit]"
CCOC(=O)c1sc(N(Cc2ccccc2)C(=O)CCl)nc1C,,"inconclusive: 28.2 µM [inhibitor, full curve]"
N#CC1=C(N)C2=C(N3CCCCC3)CCCC2C1(C#N)C#N (configuration not stated),inactive: 4.31%,
COc1ccc(C(=O)CSc2nc(=O)n3ccc(C)cc3n2)cc1,,"inconclusive: 35.5 µM [inhibitor, partial curve]"
Cc1ccc(C(=O)COC(=O)c2cc(=O)[nH]c3ccccc23)cc1C,,active: 50.1 µM
Cc1nn(CCC(=O)Nc2cccc(C#N)c2)c(C)c1S(=O)(=O)N1CCCCC1,,"inconclusive: 79.4 µM [inhibitor, partial curve, poor fit]"
COc1cccc(C(=O)Nc2nnc(S(=O)(=O)N3CCCc4ccccc43)s2)c1,,active: 50.1 µM
CN1/C(=C/C(=O)c2ccc(Cl)cc2)Sc2cc3c(cc21)OCO3,,"inconclusive: 2.24 µM [inhibitor, full curve]"
CC(NCC(O)COCCC12CC3CC(CC(C3)C1)C2)c1ccccc1 (configuration not stated),,"inconclusive: 79.4 µM [inhibitor, partial curve, poor fit]"
O=C1c2cccc3c(O)ccc(c23)C(=O)N1Cc1ccco1,,active: 31.6 µM

SMILES,"activity change, negative = inhibition",Potency
Cc1cc(C)cc(-n2ccnc2SCC(=O)Nc2ccccc2F)c1,inactive: -10.5%,
COc1ccc(S(=O)(=O)n2cccc2)cc1,inactive: -10.7%,
O=C(O)c1cccc(NC(=O)c2ccc3c(c2)C(=O)N(c2cccc([N+](=O)[O-])c2)C3=O)c1,,"inconclusive: 39.8 µM [inhibitor, single point]"
COc1ccc(C)cc1S(=O)(=O)N1CCCC(C(=O)N2CCN(c3ccccc3)CC2)C1 (configuration not stated),inactive: -5.54%,
COC(=O)c1ccc(NC(=O)CC2C(=O)N(c3ccccc3)C(=O)N2Cc2cccs2)cc1 (configuration not stated),inactive: -25.3%,
COc1cc(C)c(C(C)C)cc1S(=O)(=O)n1cnc(C)c1,,"inconclusive: 89.1 µM [inhibitor, partial curve, poor fit]"
C=CCc1ccccc1OCCSc1nc(-c2ccccc2F)nc2cc(=O)[nH]n12,,"inconclusive: 56.2 µM [inhibitor, partial curve, poor fit]"
CCOC(=O)c1cc(-c2ccc(F)cc2)n(CCC(=O)NC2CCC(C)CC2)c1C (configuration not stated),inactive: 0.386%,
Cc1cccc(N(Cc2cc(=O)[nH]c3ccccc23)C(=O)CCl)c1,,active: 44.7 µM
CCc1ccc(NC(=O)CSc2nc(-c3ccc(C)cc3)nc3c2Cc2c(CO)cnc(C)c2O3)cc1,,"inconclusive: 70.8 µM [inhibitor, single point]"
O=C(NNc1c2ccccc2nc2ccccc12)c1cc2ccccc2cc1O,,"inconclusive: 14.1 µM [inhibitor, partial curve, poor fit]"
Cc1ccnc(SCC(=O)Nc2sccc2C#N)n1,inactive: -27.2%,
O=C(OCc1cc(=O)n2c(n1)sc1ccccc12)c1ccc(O)cc1O,,"inconclusive: 28.2 µM [inhibitor, partial curve]"
Cn1c(=O)c2[nH]c(N=NNc3ccccc3F)nc2n(C)c1=O,inactive: -17.4%,
COc1ccc(NC(=O)/C(C#N)=C\c2ccc(OCc3ccc(C(=O)O)cc3)c(OC)c2)cc1,,"inconclusive: 56.2 µM [inhibitor, partial curve, poor fit]"
Cc1ccc(-c2nn(CC(=O)NCc3cc(-c4nn(C)c(=O)c5ccccc45)ccc3C)c(=O)c3ccccc23)cc1,,"inconclusive: 8.91 µM [inhibitor, full curve, poor fit]"
N#C/C(=C\c1ccc(N2CCOCC2)o1)c1nc2ccccc2[nH]1,,"inconclusive: 11.2 µM [inhibitor, full curve, poor fit]"
COc1ccc(OC)c(/C=C/C(=O)OCC(=O)Nc2nnc(-c3ccccc3)o2)c1,,"inconclusive: 17.8 µM [inhibitor, full curve]"
CC1Cc2ccccc2N1C(=O)c1ccc(F)c(S(=O)(=O)N2CCOCC2)c1 (configuration not stated),inactive: -10.8%,
Cc1cccc(NC(=S)NC(=O)/C=C/c2ccco2)n1,,"inconclusive: 31.6 µM [inhibitor, single point]"
Cc1ccc(C)c(NC(=O)c2nc(S(=O)(=O)Cc3ccc(F)cc3)ncc2Cl)c1,,active: 89.1 µM
Cc1ccc(/C=C/C(=O)N2CCN(c3ncccn3)CC2)o1,,"inconclusive: 28.2 µM [inhibitor, partial curve, poor fit]"
Cc1ccc(C(=O)Nc2cc(-c3cn4cccnc4n3)ccc2C)cc1C,,"inconclusive: 89.1 µM [inhibitor, single point]"

SMILES,"activity change, negative = inhibition",Potency
Cc1cc(NC(=O)C(C)Sc2nnc(NCc3ccco3)s2)no1 (configuration not stated),,"inconclusive: 44.7 µM [inhibitor, partial curve]"
Nc1ccc(S(=O)(=O)Nc2nccs2)cc1N=Nc1ccccc1[N+](=O)[O-],,active: 3.16 µM
O=C(CSc1nc2ccccc2o1)NC(=O)NCc1ccco1,,"inconclusive: 28.2 µM [inhibitor, single point]"
Cc1ccc(CNc2cc(C)nc3nc(-c4ccc(C)cc4)nn23)cc1,inactive: -2.42%,
Cc1ccc(-c2nn(-c3ccccc3)cc2/C=N/n2c(-c3ccncc3)n[nH]c2=S)cc1,,"inconclusive: 28.2 µM [inhibitor, full curve]"
CCCNC(=O)c1cc2c3ccccc3n(C)c2s1,,"inconclusive: 17.8 µM [inhibitor, full curve, poor fit]"
C=CCc1cccc(/C=C/c2cc(=O)c3ccccc3[nH]2)c1O,,"inconclusive: 14.1 µM [inhibitor, full curve, poor fit]"
CN(C(=O)NC(=O)C1=C(N2CCOCC2)/C(=C/c2ccccc2)CC1)S(C)(=O)=O,,"inconclusive: 79.4 µM [inhibitor, partial curve, poor fit]"
COc1ccc(NCc2ccc([N+](=O)[O-])s2)c(OC)c1,,"inconclusive: 39.8 µM [inhibitor, single point]"
COc1ccc(NC(=O)C(=O)NCc2ccco2)cc1,inactive: 1.33%,
CCCc1ccc(C(=O)NNC(=O)c2ccc(Cl)cc2)cc1,,"inconclusive: 25.1 µM [inhibitor, partial curve, poor fit]"
CC(C)(O)C(O)COc1c2ccoc2cc2oc(=O)ccc12 (configuration not stated),,"inconclusive: 17.8 µM [inhibitor, full curve, poor fit]"
Cc1c(C(=O)Nc2nnc(C3CC3)s2)oc2c(Cl)cccc12,,"inconclusive: 17.8 µM [inhibitor, partial curve, poor fit]"
CCOC(=O)C1(Cc2ccccc2Cl)CCN(S(C)(=O)=O)CC1,,"inconclusive: 89.1 µM [inhibitor, partial curve, poor fit]"
CCOC(=O)/C(C#N)=C/c1ccc(-c2ccc(C)cc2)o1,inactive: -9.58%,
Cc1ccc(NC(=O)CN2C(=O)S/C(=C\c3ccc(-c4cccc(C(=O)O)c4C)o3)C2=O)cc1C,,active: 8.91 µM
O=C(COC(=O)C1Cc2ccccc2CN1C(=O)c1ccccc1)Nc1ccc(SC(F)F)cc1 (configuration not stated),,"inconclusive: 15.8 µM [inhibitor, partial curve]"
Cc1ccc(NC(=O)CSC2=C(C#N)C(c3ccco3)CC(=O)N2)cc1 (configuration not stated),,"inconclusive: 39.8 µM [inhibitor, partial curve, poor fit]"
NS(=O)(=O)c1ccc(CCNC(=O)C(=O)Nc2cc3c4c(c2)CC(=O)N4CCC3)cc1,,"inconclusive: 39.8 µM [inhibitor, full curve]"
O=C(/C=C/c1ccco1)Nc1cccnc1Cl,,"inconclusive: 50.1 µM [inhibitor, partial curve]"
COc1cccc(C(=O)/C=C/Nc2ccc(NC(C)=O)cc2)c1,,"inconclusive: 79.4 µM [inhibitor, partial curve, poor fit]"
